Data reported in PubChem BioAssay AID651820 (National Center for Advancing Translational Sciences (NCATS), 2012).
About 12,000 (3.5%) of roughly 340,000 compounds were called active. The shares of active, inactive and inconclusive entries below differ from those in the screen. Calls come from the whole dose curve; as a rule, active = well fitted inhibition curve with a large enough effect; inconclusive = small, poorly fitted or top-dose-only effect, or another doubt; inactive = no such curve, though single readings can be large or run the other way. No potency is given beside an inconclusive call; the fits are too rough.

Experiment: qHTS Assay for Inhibitors of Hepatitis C Virus (HCV)
Details: Huh7.5.1 HCVcc-Cre (HCVcc is cell-culture hepatitis C virus) infection, luciferase reporter, 44 h; series mostly up to 41.8 µM
Summary of the method: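 Seed cells (1,000/well) for 4 h; treat with compound and infect with HCVcc-Cre, moi about 0.5. Incubate 44 h, then detect luciferase activity.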
Potency is the fitted concentration of half-maximal effect; tags give direction and shape of the fitted curve.

| Compound | Potency |
| --- | --- |
| Cc1nn(Cc2ccccc2Cl)c(C)c1C(=O)N1CCN(c2ccccc2)CC1 | inconclusive [inhibitor, partial curve] |
| CN(C)CCCN(C(=O)c1ccc(S(=O)(=O)N(C)Cc2ccccc2)cc1)c1nc2cc3c(cc2s1)OCO3 | inconclusive [inhibitor, single point] |
| CCCCC[C@H]1CN(CCc2ccccc2)C(=O)[C@@H]1CC(=O)NCc1ccc(OC)cc1 | inconclusive [inhibitor, single point] |
| O=C(C1CCN(S(=O)(=O)c2cccnc2)CC1)N1CCN(c2ccc(Cl)cc2)CC1 | inconclusive [inhibitor, partial curve] |
| CCOc1ccccc1NC(=O)COc1ccc(S(=O)(=O)N2CCCC2)cc1 | inconclusive [inhibitor, partial curve] |
| Cc1ccccc1C(=O)NCC(=O)N1CCN(C/C=C/c2ccccc2)CC1 | inconclusive [inhibitor, partial curve, poor fit] |
| CC(C)NC[C@H](O)COc1cccc2ccccc12 | inconclusive [inhibitor, partial curve, poor fit] |
| COc1nc(Nc2cccc(F)c2)nc(OC)n1 | inactive |
| CCC(=O)N1CCC2(CC1)Oc1ccc(Cl)cc1C(=O)C21CC(c2ccc(Cl)cc2)=NO1 (stereo not drawn) | inconclusive [inhibitor, partial curve] |
| Cc1ccc(C(=O)CSc2nc3cc(S(=O)(=O)N4CCOCC4)ccc3o2)cc1 | inconclusive [inhibitor, single point] |
| Cc1cccc(N(Cc2cc3ccccc3[nH]c2=O)C(=O)c2cccs2)c1 | inconclusive [inhibitor, single point] |
| Nc1ccccc1C(=O)NC1CCCNC1=O (stereo not drawn) | inactive |
| CCCCN1CC(=O)N2[C@@H]3c4cc(Br)ccc4OC[C@@H]3[C@H](C(=O)OCC)[C@]2(C)C1=O | inconclusive [inhibitor, single point] |
| Cn1nc(C(F)(F)F)c(/C=N/OC(=O)c2ccccc2)c1Sc1ccc(Cl)cc1 | inconclusive [inhibitor, single point] |
| Cc1cccc(OCC(=O)NC2CCCc3ccccc32)c1C (stereo not drawn) | inconclusive [inhibitor, single point] |
| CC1CCN(C(=O)COC(=O)/C=C/c2ccc([N+](=O)[O-])cc2)CC1 | inconclusive [inhibitor, partial curve] |
| CC(=O)c1cccc(NC(=O)CSc2ccc(-c3sc(C)nc3C)nn2)c1 | inconclusive [inhibitor, single point] |
| COc1ccc(NC(=O)c2cc3ccccc3o2)cc1 | inconclusive [inhibitor, single point] |
| CCN(CC)S(=O)(=O)c1ccc2oc(SCC(=O)Nc3cc(C)on3)nc2c1 | active: 6.31 µM |
| O=C(NCCc1nc(-c2ccccc2)cs1)c1ccc(Br)cc1 | active: 11.2 µM |
| COc1ccccc1NC(=O)COn1nnc2ccc(S(=O)(=O)N3CCOCC3)cc21 | inconclusive [inhibitor, single point] |
| CCOc1ccc(C(=O)N2CCN(c3ccccn3)CC2)cc1 | inactive |

| Compound | Potency |
| --- | --- |
| CCOC(=O)c1ccc(NC(=O)CSCc2ccco2)cc1 | inactive |
| CCN(CC)CCN(C)Cc1ccc(Br)cc1 | inconclusive [inhibitor, single point] |
| O=C(NCc1ccccc1)/C(=C/c1ccc(OC(F)F)cc1)c1ccccc1 | active: 22.4 µM |
| Cc1ccc(C2CCN(C(=O)Nc3ccc(F)cc3)C2)cc1 (stereo not drawn) | inactive |
| O=C(/C=C/c1ccccc1)NCCc1c[nH]c2ccccc12 | inconclusive [inhibitor, single point] |
| CC(=O)Nc1ccc(C(=O)OCC(=O)N2CCN(C(=O)c3ccco3)CC2)cc1 | inactive |
| O=C(CCSc1nnc2scc(-c3ccccc3)n12)NCc1ccc2c(c1)OCO2 | inactive |
| Cc1cc(C)cc(N2CC(c3nc4ccccc4n3C)CC2=O)c1 (stereo not drawn) | inconclusive [inhibitor, single point] |
| C#CCOCCOCCOCCNc1nc(N2CCN(C(=O)CCCCCCCCCCNC(=O)[C@H](CCCCN)n3cc(CCCC(=O)O)nn3)CC2)nc(N2CCN(C(=O)CCCCCCCCCCNC(=O)[C@H](CCCCN)n3cc(CCCC(=O)O)nn3)CC2)n1 | inconclusive [inhibitor, single point] |
| O=C(CSc1nnc(Cc2cc(=O)[nH]c(=O)[nH]2)n1-c1ccccc1)N1CCCc2ccccc21 | inactive |
| CC1(C)CC(=O)/C(=C(/O)CCCN2C(=O)c3ccccc3C2=O)C(=NC(C)(C)C)C1 | inactive |
| COc1ccc(NC(=S)Nc2nc(CC(=O)Nc3ccccc3OC)cs2)cc1 | active: 31.6 µM |
| CC(Nc1cc(N2CCN(S(C)(=O)=O)CC2)ccc1[N+](=O)[O-])c1ccccc1 (stereo not drawn) | inconclusive [inhibitor, partial curve] |
| CCCN(CCO)Cc1ccc(Cl)c(Cl)c1 | inactive |
| Fc1ccc(CCNC(=S)Nc2ccc(F)c(Cl)c2)cc1 | inconclusive [inhibitor, single point] |
| Cc1ccc([C@H]2C(C(=O)O)=CC[C@@H](c3ccc(C)cc3)N2S(=O)(=O)c2ccc(C)cc2)cc1 | inconclusive [inhibitor, full curve, poor fit] |
| O=C(CC12CC3CC(CC(C3)C1)C2)NC(=S)N1CCCCC1 | inactive |
| Cc1cc(C(F)(F)F)c(C#N)c(SCC(=O)NC(C)(C)C)n1 | inconclusive [inhibitor, single point] |
| Cc1ccc(O)c(C(=O)c2cnc3c(c2)COc2ccccc2-3)c1 | active: 10 µM |
| COc1ccc(Cn2nnnc2C(c2cccs2)N2CCN(c3ccc([N+](=O)[O-])cc3)CC2)cc1 (stereo not drawn) | inactive |
| Cc1ccc2nc(NC(=O)C3CCN(S(=O)(=O)c4cccnc4)CC3)sc2c1 | inconclusive [inhibitor, single point] |
